# Measured values: publication PMC4336329 (PLoS ONE, 2015)
# Screen size: about 310,000 compounds; about 2,200 (0.71%) showed an effect of 50% or more. Effects have a minus sign here. The list shows a part of the results.
# Molecular target: human ether-à-go-go-related gene (hERG) potassium channel (human, UniProt Q12809)
# Experiment: primary screen, population patch clamp on CHO cells stably expressing hERG
# human ether-à-go-go-related gene (hERG) potassium channel, sequence (Q12809 whole entry, looked up): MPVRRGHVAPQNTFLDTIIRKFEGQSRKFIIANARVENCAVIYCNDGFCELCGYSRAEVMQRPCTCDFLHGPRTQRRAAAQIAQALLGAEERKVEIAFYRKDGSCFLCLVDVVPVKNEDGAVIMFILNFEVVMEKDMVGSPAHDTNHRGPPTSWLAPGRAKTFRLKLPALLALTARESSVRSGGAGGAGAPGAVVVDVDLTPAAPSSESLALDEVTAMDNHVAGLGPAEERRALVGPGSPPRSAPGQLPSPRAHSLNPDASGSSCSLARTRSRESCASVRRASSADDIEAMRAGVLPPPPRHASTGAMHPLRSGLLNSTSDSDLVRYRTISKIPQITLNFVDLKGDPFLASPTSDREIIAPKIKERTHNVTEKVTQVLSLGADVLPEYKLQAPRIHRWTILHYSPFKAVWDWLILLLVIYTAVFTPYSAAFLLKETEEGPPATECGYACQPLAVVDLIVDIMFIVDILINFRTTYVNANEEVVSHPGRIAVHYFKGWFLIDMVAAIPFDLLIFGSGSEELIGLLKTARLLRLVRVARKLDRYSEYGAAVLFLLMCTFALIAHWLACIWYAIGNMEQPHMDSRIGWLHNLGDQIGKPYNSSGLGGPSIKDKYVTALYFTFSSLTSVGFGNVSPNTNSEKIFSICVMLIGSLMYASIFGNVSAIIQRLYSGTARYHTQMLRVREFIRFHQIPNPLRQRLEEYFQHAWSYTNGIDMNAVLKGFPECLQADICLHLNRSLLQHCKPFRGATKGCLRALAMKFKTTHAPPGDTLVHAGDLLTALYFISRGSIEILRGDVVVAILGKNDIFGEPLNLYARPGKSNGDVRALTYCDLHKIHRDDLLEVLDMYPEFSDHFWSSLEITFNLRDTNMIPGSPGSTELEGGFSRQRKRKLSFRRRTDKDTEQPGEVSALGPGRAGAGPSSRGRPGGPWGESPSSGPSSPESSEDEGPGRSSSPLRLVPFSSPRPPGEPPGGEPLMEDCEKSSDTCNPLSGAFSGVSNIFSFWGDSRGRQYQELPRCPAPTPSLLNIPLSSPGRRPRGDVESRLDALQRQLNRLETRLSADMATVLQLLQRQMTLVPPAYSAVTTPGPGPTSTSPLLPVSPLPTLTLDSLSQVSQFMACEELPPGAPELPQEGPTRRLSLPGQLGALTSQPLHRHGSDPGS
row,Structure (SMILES),"hERG current change (%, negative = inhibition) at 1uM [%]"
1,O=C(OCC(=O)c1cccs1)c1ccccc1,0.925
2,O=c1cc(CO)occ1OCc1cccc(C(F)(F)F)c1,5.96
3,Cc1ccnc(NC(=O)c2ccc(Cl)c(S(=O)(=O)N3CCCC3)c2)c1,15.5
4,CCCCc1nc2ccccc2c(=O)n1NC(=O)c1c(O)c2ccccc2n(C)c1=O,14.3
5,COc1ccc(N2CCN(S(=O)(=O)CCNC(=O)COc3ccccc3C)CC2)cc1,5.85
6,CCOc1ccc(/C=C2\SC(=S)N(NC(=O)c3ccncc3)C2=O)cc1OC,13.1
7,Cc1ccc(-n2c(SCC(=O)N3CCOCC3)nnc2-c2ccncc2)cc1C,7.61
8,Cc1ccc(S(=O)(=O)N(C)c2c(C)ccc(S(=O)(=O)Nc3ccncc3)c2C)cc1,7.32
9,CC(/C=N/Nc1nncc(=O)[nH]1)=C\c1ccccc1,7.39
10,CNC(=O)c1csc(-c2ccccc2)n1,-4.25
11,Cc1ccc(C(=O)NCc2n[nH]c(=S)n2-c2ccccc2)cc1[N+](=O)[O-],12.2
12,COc1cccc(-c2cc(C(=O)Nn3cnnc3)c3ccccc3n2)c1,9.72
13,CC1CN=C(N(Cc2ccccc2)C(=O)Nc2ccccc2)S1 (stereo not shown),22.4
14,CCCCCOC(=O)CSc1nc2c(c(=O)[nH]c(=O)n2C)n1Cc1ccc(Cl)cc1,6.19
15,Cn1c(N)c(C(=O)COC(=O)c2ccc([N+](=O)[O-])o2)c(=O)n(C)c1=O,2.79
16,CN1CCN(CC(=O)NN2CC(=O)N(c3ccc(F)cc3)CC2=O)CC1,5.9
17,O=[N+]([O-])c1ccccc1S(=O)(=O)Nc1ccc(-c2ccc(N3CCCC3)nn2)cc1,17.7
18,COc1ccccc1-n1c(CNC(=O)c2ccc(S(=O)(=O)N3CCCCC3)cc2)n[nH]c1=S,18.3
19,COc1ccc2cc(C3(C)NC(=O)N(CC(=O)NCC(F)(F)F)C3=O)ccc2c1 (stereo not shown),12.1
20,COc1ccc(NS(=O)(=O)c2ccc(-c3ccccn3)s2)cc1,8.18
21,COc1ccc(C2CC(c3ccccc3)=NN2S(=O)(=O)c2ccccc2)cc1 (stereo not shown),12.6
22,C/C(N)=C(/C#N)C(=O)CSc1nnc(C)n1-c1ccccc1,12.2

row,Structure (SMILES),"hERG current change (%, negative = inhibition) at 1uM [%]"
1,CCOC(=O)c1c(-c2ccc(Cl)cc2)c(C#N)c(=O)n(N)c1N,1.46
2,O=C(CCc1ccccc1)Nc1ccc(Cl)cn1,5.8
3,COc1ccc(N/C=C/C(=O)c2ccc3c(c2)OCO3)cc1OC,13.6
4,C/C=C/C(=O)OCC(=O)Nc1cc(-c2cc(C)c(C)cc2C)nn1-c1ccccc1,10.2
5,CC1CC(C)CN(S(=O)(=O)N2CCCC(C(=O)NC3CCCCC3C)C2)C1 (stereo not shown),9.93
6,Cc1cccc(NC(=S)NCCc2ccc(F)cc2)c1C,11.9
7,Cn1c(CC(=O)NCCO)c(Sc2ccccc2)c2ccccc21,-2.03
8,Cc1ccc(CSc2nnc(Cn3c(=O)sc4ccccc43)n2C)cc1,-3.78
9,Cc1[nH]c(C)c(S(=O)(=O)N2CCC(C)CC2)c1C(=O)N1CCCC1,2.54
10,CCn1cc(C(=O)NCCc2ccccc2)c(=O)c2cc(S(=O)(=O)N3CCCC3)ccc21,15.7
11,COc1cc(-c2noc(CCCC(=O)Nc3ccc(C(N)=O)cc3)n2)cc(OC)c1OC,8.92
12,CCOC(=O)CSc1nnc(CSc2nc3sc4c(c3c(=O)[nH]2)CCC4)n1C,8.77
13,Cc1nnc(-c2ccc(Oc3ccc(C)c(C)c3)c([N+](=O)[O-])c2)o1,-2.87
14,CC(=O)N(C)c1ccc(N=Nc2c(C)[nH]n(-c3ccccc3)c2=O)cc1,8.98
15,CC(=O)Nc1ccc(SC(C)C(=O)NC2CCCC2)cc1 (stereo not shown),11
16,Cc1nn(-c2ccccc2)c(C)c1C(=O)OCC(=O)Nc1ccc2c(c1)OCO2,-13.6
17,O=C(CCc1c[nH]c2ccccc12)Nc1ncccc1O,10.9
18,O=C(CCNS(=O)(=O)c1ccc(OC(F)(F)F)cc1)NCCc1c[nH]c2ccccc12,5.35
19,COc1ccc(-c2csc(NC(=O)COC(=O)C3=COCCO3)n2)cc1,13.6
20,Nc1ccc(NC(=S)Nc2ccccc2)cc1,10.1
21,CCN(CC)S(=O)(=O)c1ccc2oc(SCC(=O)NC3CC3)nc2c1,6.39
